# Experimental data from PubChem BioAssay AID488969 (Vanderbilt High Throughput Screening Facility, 2010).
# Whole data set: some 110,000 compounds, median “z-score” near -0.1, cut for the highest 2% near 2. This is one part of the list. Active and inactive are the calls of the source.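 How the source made its calls: active means z-score in the third read window above 3 or below -3; inactive means the rest.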
# Biological target: Metabotropic glutamate receptor 8 (Rattus norvegicus) (UniProt P70579)
# Assay: rat mGluR8 modulators via GIRK flux, primary screen, cell-based, thallium flux, HTS (AID 488969)
# Details: HEK293 rat mGluR8, GIRK (G protein-gated inwardly rectifying potassium channel) thallium flux, FluoZin2; at 10 µM; stronger effect = higher value; submaximal glutamate (EC20) added with thallium
# Chain of UniProt P70579 (P70579 whole entry, looked up): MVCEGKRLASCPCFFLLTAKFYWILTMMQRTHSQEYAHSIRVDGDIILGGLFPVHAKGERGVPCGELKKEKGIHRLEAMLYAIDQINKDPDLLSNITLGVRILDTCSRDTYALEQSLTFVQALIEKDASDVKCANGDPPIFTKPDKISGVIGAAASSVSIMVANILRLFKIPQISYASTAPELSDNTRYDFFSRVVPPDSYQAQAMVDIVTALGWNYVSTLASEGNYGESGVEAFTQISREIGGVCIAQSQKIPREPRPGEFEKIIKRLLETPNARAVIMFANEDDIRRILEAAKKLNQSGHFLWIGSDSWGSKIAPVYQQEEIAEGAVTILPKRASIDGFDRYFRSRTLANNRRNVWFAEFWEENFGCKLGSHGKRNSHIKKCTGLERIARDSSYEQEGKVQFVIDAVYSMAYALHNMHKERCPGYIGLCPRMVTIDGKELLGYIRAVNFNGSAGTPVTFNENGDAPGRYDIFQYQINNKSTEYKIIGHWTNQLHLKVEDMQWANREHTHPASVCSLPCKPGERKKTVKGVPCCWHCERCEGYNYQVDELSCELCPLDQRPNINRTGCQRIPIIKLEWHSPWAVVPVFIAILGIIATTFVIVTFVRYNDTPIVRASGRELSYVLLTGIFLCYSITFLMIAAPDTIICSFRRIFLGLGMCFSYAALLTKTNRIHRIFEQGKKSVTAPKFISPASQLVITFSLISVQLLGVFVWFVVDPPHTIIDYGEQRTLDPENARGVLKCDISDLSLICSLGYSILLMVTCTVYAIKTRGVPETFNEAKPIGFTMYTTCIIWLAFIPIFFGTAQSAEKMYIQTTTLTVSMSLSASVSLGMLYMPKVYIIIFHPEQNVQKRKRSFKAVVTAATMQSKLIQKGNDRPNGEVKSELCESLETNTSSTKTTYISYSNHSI
row,Structure (SMILES),z-score
1,COc1ccc(-c2cc(-c3ccc(OC)cc3)nc(-c3ccc4c(c3)NC(=O)CO4)c2)cc1,-0.0143
2,Cc1ccc(-c2cn3cccnc3n2)cc1NC(=O)c1cccs1,-0.382
3,COc1ccccc1CN(Cc1nc2ccccc2c(=O)[nH]1)S(=O)(=O)c1ccc(C)cc1,-0.428
4,CC(C)(C#N)N([O-])C=C[N+](=O)C(C)(C)C#N,0.168
5,C=C(C)COc1ccc2c3c(c(=O)oc2c1OCC(=C)C)CCC3,0.75
6,O=C(Nc1cccc2ccccc12)c1cn(-c2ccccc2)nc1-c1cccs1,-0.518
7,Cc1ccccc1OCc1nnc(SCC(=O)N2c3ccccc3Sc3ccc(Cl)cc32)o1,-0.448
8,O=C1c2ccccc2S(=O)(=O)N1Cc1nnc(-c2ccccc2Br)o1,-2.58
9,Cc1cc(C)c(C#N)c(Cl)n1,-0.381
10,CCN(CC)CCNC(=O)c1ccccc1N,-0.11
11,COc1ccc2c(c1)C(=O)N(c1ccccc1OC)C(=O)C2,0.316
12,Cc1c(NC(=O)c2nn3c(C(F)(F)F)cc(-c4ccccc4)nc3c2Cl)c(=O)n(-c2ccccc2)n1C,-0.0759
13,Cc1c(/C(Cc2ccccc2)=N/O)c2ccccc2n1C,-0.391
14,N=C1S/C(=C\c2ccccc2F)C(=O)N1c1ccc(F)cc1,-0.0449
15,CCC1=Nc2cc(C(=O)NCc3ccco3)ccc2Sc2ccccc21,-0.837
16,Cc1ccc(/C=N/NC(=O)CSc2nc3ccccc3n2Cc2ccccc2)o1,-0.347
17,CCOC(=O)NC(c1ccccc1)C1CCCCC1=O (stereo not given),-0.571
18,CCCOc1ccc(CC(=O)NCc2ccco2)cc1OC,0.0321
19,Cc1sc2nc(COC(=O)C(NC(=O)c3ccc(Cl)cc3Cl)C(C)C)[nH]c(=O)c2c1C (stereo not given),-0.106
20,Cn1c(SCC2CCCO2)nnc1-c1ccncc1 (stereo not given),0.0461
21,CC(C)(C)c1ccc(/C=N/NC(=S)NCc2ccccc2)cc1,0.0573
22,COc1ccc(C(=O)NNC(=O)CCC(=O)Nc2cc(C)on2)cc1,-0.0863

row,Structure (SMILES),z-score
1,CC(=O)Nc1cccc2c1C(=O)N(c1ccc(C)cc1)C2=O,0.845
2,O=C(CSc1ncnc2sc3c(c12)CCCCC3)NCc1ccco1,1.08
3,O=C(Nc1nc(SCc2ccc(F)cc2)ns1)c1ccco1,-0.506
4,O=C(OCCCN1CCCC1)C1(c2ccccc2)CCCC1,0.0806
5,CCn1cc(S(=O)(=O)CC(=O)Nc2ccc3c(c2)OCCO3)c2ccccc21,-0.274
6,O=C(Cc1ccccc1)n1nc(-c2ccccc2)nc1NCc1ccco1,-0.16
7,Cc1ccc(C(=O)NNC(=S)NC(=O)COc2ccccc2)cc1,active: 6.25
8,Cc1cc(NC(=O)c2c(F)cccc2Cl)n(-c2nc3ccccc3[nH]2)n1,active: 3.06
9,O=S(=O)(c1ccc2oc3ccc(S(=O)(=O)N4CCCC4)cc3c2c1)N1CCCC1,0.586
10,Cc1nc2ccccc2nc(C)c1=NO,0.278
11,CCOC(=O)C1=C(CNCc2ccc(C)cc2)NC(=O)NC1c1ccc(OC)cc1 (stereo not given),-0.397
12,O=C(CSc1nnc2c3cc(F)ccc3nc(-c3ccccc3)n12)N1CCOCC1,0.0643
13,CCN1C(=O)C2(C(C#N)=C(N)Oc3n[nH]c(COC)c32)c2ccccc21 (stereo not given),-0.00725
14,CCN(CC)C(=O)/C(NC(=O)c1ccccc1)=C(/Sc1ncccn1)c1ccccc1,-0.112
15,Cc1ccc(Cl)c2c1NC(=O)C2(O)CC(=O)c1ccc(F)cc1 (stereo not given),-0.203
16,Cc1nn(-c2ccccc2)c2sc(C(=O)OCc3nnc(-c4ccccc4)o3)cc12,-0.124
17,Cc1nc(OCC(=O)c2ccc(Cl)cc2)c(C#N)c2c1COC(C)(C)C2,0.572
18,Cc1ccc(C(=O)/C=C/c2ccc(Br)cc2)o1,-0.27
19,CC(=O)NC12CC3CC(C1)CC(C(=O)OCC(=O)Nc1ncc(Cl)cc1Cl)(C3)C2,0.854
20,CCOC(=O)C1C(=O)NC(N2CCN(c3ccccc3)CC2)=NC1c1ccccc1 (stereo not given),-0.388
21,CC1C/C(=N/Nc2ccc([N+](=O)[O-])cc2[N+](=O)[O-])CC(C)(C)C1 (stereo not given),-0.416
22,Cc1cc2c3c(c1)C(C)(c1ccccc1)CC(C)(C)N3C(=O)C21C(C#N)=C(N)OC2=C1C(=O)CC(C)(C)C2 (stereo not given),0.022

row,Structure (SMILES),z-score
1,Cn1nc([N+](=O)[O-])nc1Sc1nnc(-c2ccccc2)o1,-0.0165
2,NC(=O)CN1CCOCCOCCOCCOCCOCC1,0.482
3,COc1ccc(/C=C\c2onc(C)c2S(=O)(=O)N2CCC(C(=O)NCCC(C)C)CC2)cc1,0.851
4,COc1ccccc1/C=C/C(=O)OCC(=O)Nc1cc(C(F)(F)F)ccc1N1CCOCC1,-0.341
5,Cc1ccc(C(C)C)c(OCCN(C)C)c1,0.47
6,Cc1cc(C(F)F)nn1CC(=O)N1CCSCC1,0.0304
7,CC(=O)/C(=N/Nc1ccccc1Cl)Sc1nnc(C(O)c2ccccc2)n1-c1ccccc1 (stereo not given),0.00854
8,CCC(C)/C(C)=N/NC(=O)c1ccc(CSc2nc3ccccc3s2)cc1 (stereo not given),-0.291
9,Cc1nn(Cc2cccc(C(=O)NC3CCCCC3)c2)c(C)c1Cl,-1.03
10,Cc1ccc(NC(=O)C2C3/C=C\CCCCC32)cc1C (stereo not given),0.153
11,O=C(Nc1nnc(-c2ccccc2)s1)c1cccc(S(=O)(=O)N2CCOCC2)c1,-0.0335
12,CC(C)CN1C(=O)c2ccc(C(=O)NCc3ccc4c(c3)OCO4)cc2C1=O,0.0583
13,CCc1ccc(NC(=O)C(=O)c2cn(CC(=O)N3CCCCC3)c3ccccc23)cc1,0.121
14,CSc1ncc2c(n1)-c1cc(C)ccc1SC2,-0.152
15,Cc1cc(Cl)ccc1OCCCC(=O)N/N=C/c1cccc([N+](=O)[O-])c1,-0.0451
16,CCn1nnc(NC(=O)c2cc(Cl)c(OC)c(Cl)c2)n1,0.078
17,Cc1ccccc1NC(=O)/C(=C/c1cccs1)NC(=O)c1ccco1,-0.146
18,CN(C)S(=O)(=O)c1ccc(S(=O)(=O)Nc2ccc3c(c2)oc2ccccc23)cc1,0.0572
19,Cc1ccc(-c2nnc(-c3ccccc3S(=O)(=O)Cc3ccc(Cl)cc3)o2)cc1,0.0583
20,CC(C)/C=C1\CCCCC1N(C)C(=O)NC(C)C (stereo not given),-0.373
21,CC(=O)C1=C(C)Nc2cc(C(F)(F)F)ccc2S1,-0.36
22,O=C(Cn1ccc2ccccc2c1=O)Nc1ccc2c(c1)OCO2,0.362

row,Structure (SMILES),z-score
1,O=C1N=C(c2ccccc2)S/C1=C\c1cccs1,2.92
2,Cc1cc(C)nc(Nc2n[nH]c(COc3ccc4ccccc4c3)n2)n1,0.0803
3,CC(CN1CCOCC1)OC(=O)C(C)(c1ccccc1)c1ccccc1 (stereo not given),0.383
4,Cn1ccnc1SCC(=O)Nc1sccc1C#N,-0.121
5,NC1=NC(=O)/C(=C/c2cccs2)S1,-0.848
6,COc1ccc(Cc2c[nH]c(=O)[nH]c2=O)cc1,-0.218
7,O=C(c1cccn(Cc2cccc(Cl)c2)c1=O)N1CCOCC1,0.0735
8,CC(C)NC(=O)CN1C(=O)C(=O)c2ccccc21,0.102
9,Cc1ccc(/C=C/C(=O)c2nc3ccccc3[nH]2)cc1,-0.981
10,Cc1cccc(N(Cc2cc3ccccc3[nH]c2=O)S(=O)(=O)c2ccccc2)c1,0.214
11,O=C(c1ccccc1)c1nc[nH]c1C(=O)Nc1ccccn1,0.0319
12,CCN(C(=O)COC(=O)c1cnc(C)cn1)C1CCCCC1,0.0901
13,Cc1ccc(S(=O)(=O)N2CCN(CC(=O)N/N=C/c3cc([N+](=O)[O-])ccc3Cl)CC2)cc1,-0.567
14,CN(CC(CC(=O)O)c1ccccc1)S(=O)(=O)c1ccc(Br)cc1 (stereo not given),0.157
15,CCCCC(=O)Nc1ccc(C(=O)Nc2nc(CC(=O)OCC)cs2)cc1,-0.728
16,OCC1CCCN1C(=S)Nc1ccccc1 (stereo not given),-0.00603
17,Cc1ccccc1OCc1nc(-c2ccccc2)no1,-0.372
18,O=C(NCc1ccccc1)C1C2C=CC3(CN(Cc4cccnc4)C(=O)C13)O2 (stereo not given),-0.421
19,Cc1cccc(NC(=S)N=Nc2c(O)n(CN3CCOCC3)c3ccccc23)c1C,2.19
20,Oc1ccc(C=Nc2ccccc2-c2nc3ccccc3[nH]2)cc1,-0.054
21,O=C(c1ccc(CN2CCOCC2)cc1)N1CCN(c2cccc(Cl)c2)CC1,-0.224
22,O=C(COc1ccccc1Cl)N1CCN(c2ccc(F)cc2)CC1,0.0431

row,Structure (SMILES),z-score
1,Cc1cccc(C)c1NC(=O)NN(C(=O)c1ccccc1)C(C)(C)C,-0.187
2,O=S(=O)(c1ccccc1F)N1CCN(Cc2nc3ccccc3[nH]2)CC1,-0.29
3,CS(=O)(=O)N1CCc2cc(C(=O)N3CCOCC3)ccc21,0.263
4,OC(CNCCC1C=Nc2ccccc21)Cn1c2ccc(Cl)cc2c2cc(Cl)ccc21 (stereo not given),0.025
5,O=C(c1ccco1)N1N=C(c2cccs2)CC1c1ccc(F)cc1 (stereo not given),-1.59
6,COc1ccc(Nc2nc(Cl)nc(NCc3ccco3)n2)cc1,-0.0731
7,Cc1cc(C(=O)N2CCN(Cc3ccccc3)CC2)on1,-0.49
8,CN(C)c1nc(SCc2ccccc2)nc(N2CCOCC2)n1,-0.165
9,Fc1ccc(-c2n[nH]c(=S)n2CC2CCCO2)cc1 (stereo not given),-0.283
10,CCc1[nH]nc2c1C(Cc1ccccc1)C(C#N)=C(N)O2 (stereo not given),0.432
11,COC(=O)c1cc(-c2c(C)nn(-c3ccccc3)c2C)n[nH]1,-0.584
12,COc1ccc(OC)c(NC(=O)CSCc2cnn(-c3ccccc3)c2-n2cccc2)c1,0.126
13,Cc1cc([N+](=O)[O-])nn1CCCC(=O)NC(C)c1ccccc1 (stereo not given),-0.317
14,Cn1c(CN2CCN(C(=O)c3ccccc3Cl)CC2)nc2cc([N+](=O)[O-])ccc21,0.11
15,CC1=CC(C)(C)N2C(=O)C3(C(C#N)=C(N)OC4=C3C(=O)CC(C)(C)C4)c3cccc1c32 (stereo not given),-0.0955
16,Nc1cc(=O)[nH]c(SCc2ccc(Cl)cc2)n1,0.285
17,COc1ccc(C2NC(C(=O)O)CS2)cc1COCC(F)(F)F (stereo not given),-0.34
18,Cc1cc(C(=O)COC(=O)c2ccc(O)cc2)c(C)n1CC1COc2ccccc2O1 (stereo not given),-0.372
19,CC(=O)Nc1ccc(NC(=O)CNS(=O)(=O)c2ccc(C)cc2)cc1,0.392
20,NS(=O)(=O)c1cccc(NC(=O)Cn2cnc3ccccc3c2=O)c1,-0.339
21,Cc1ccc2cc(/C=C3\N=C(c4ccccc4)OC3=O)c(N3CCOCC3)nc2c1,-0.314
22,Cc1cc(C)cc(-n2c(SCC(=O)Nc3cccc(S(=O)(=O)NC4=NCCCCC4)c3)nc3ccccc3c2=O)c1,-0.139
